Assay results taken from paper PMC12136788.
The list shows a part of the results.

B1: chr10:131940083:131940120:+|CDS_3pUTR|ENSG00000175470|msi1_unk|FALSE|overlapping (ssRNA)
RNA: GGGAGUUCUACAGUCCGACGAUCAUAUAAUGUUUACAGCACCUUUCAAAGUCAUGAACCGGAGUUUGACUAUUUGAAAAGUCUAGAAAUUGAGGAAAAAAUUAAUAAAAUUAGGUGGUUACCACAACAGAAUGCUGCUCAUUUCAACAGAGGAUUGAGCAUCA
B2: ENSG00000136451:be:win_201|CDS|ENSG00000136451|bound_else_gene|NA|bound_elsewhere_windowed (ssRNA)
RNA: GGGAGUUCUACAGUCCGACGAUCAGAAAAACCCAAAACUUCAUUUGUGUGCACUUACUGCAGUAAAGCUUUCAGGGACAGCUAUCACCUGAGGCGCCACGAAUCCUGCCACACAGGGAUCAAGUUGGUGUCCCGGCCAAAGAACAACAGAGGAUUGAGCAUCA
B3: chr14:96341565:96341677:-|CDS|ENSG00000066739|unk|total|mutant (ssRNA)
RNA: GGGAGUUCUACAGUCCGACGAUCCUGGAACCCCAAAAUUAUUUAUGAGCCACACCCACAGCUAACCCGAAAUUUACCAGAGACCGCACCUUCUGACCCAGUGCAGAUUGGACGGUUAAUUGGCCGGUUGGAGUUGAGUCUCACCAACAGAGGAUUGAGCAUCA
B4: chr11:46743636:46743700:-|3pUTR|ENSG00000175216|msi1_unk|FALSE|overlapping (ssRNA)
RNA: GGGAGUUCUACAGUCCGACGAUCUUGUAAAAUUGUCCUAAUCUUUCCUAGCUUUUUAAUAGUUAAUAUUAGAAACUCUUUAAUAGUUUUCCUUUCAGUUUGUGAGCUCUUCUCUGUCGCCCUGAAGGGUCACUGUAUUCUGUACAACAGAGGAUUGAGCAUCA
B5: chr13:42321371:42321394:+|3pUTR|ENSG00000023516|msi1_unk|FALSE|overlapping (ssRNA)
RNA: GGGAGUUCUACAGUCCGACGAUCUUCUGUUUAUGGUGUAAUCAUUCUGAGGUGAGGCUUUUCUUAUUUCCUUUGCAUUUUGCUAGAGCUGUGCUGAGUUCAGCAUUUGCUUAUUUAACCACUACAUAAUGACAGACCAGUUAUCAACAGAGGAUUGAGCAUCA
B6: ENSG00000124766:be:win_2951|3pUTR|ENSG00000124766|bound_else_gene|NA|bound_elsewhere_windowed (ssRNA)
RNA: GGGAGUUCUACAGUCCGACGAUCCUUUAUUCCUUCCUUUUCCUUUUUUUCUUUUUUUUUUCUUUUUUUUUUUUUUUUUUUGGUAGUUGUUGUUACCCACGCCAUUUUACGUCUCCUUCACUGAAGGGCUAGAGUUUUAACUUUCAACAGAGGAUUGAGCAUCA

These binders were tested against T1, UNK ZnF1-6 (called full-length) (human, UniProt Q9C0B0 30-357) (assay: nsRBNS (natural sequence RNA bind-n-seq); RBNS binding buffer (assumed for nsRBNS): 25 mM Tris pH 7.5, 150 mM KCl, 3 mM MgCl2, 0.01% Triton X-100, 500 ug/ml BSA, 20 U/ml SUPERase-In, 4 C; UNK is unkempt and MSI1 is Musashi-1; names of the RNAs are library labels; protein concentration not given here; high values mean tight binding).
T1 sequence: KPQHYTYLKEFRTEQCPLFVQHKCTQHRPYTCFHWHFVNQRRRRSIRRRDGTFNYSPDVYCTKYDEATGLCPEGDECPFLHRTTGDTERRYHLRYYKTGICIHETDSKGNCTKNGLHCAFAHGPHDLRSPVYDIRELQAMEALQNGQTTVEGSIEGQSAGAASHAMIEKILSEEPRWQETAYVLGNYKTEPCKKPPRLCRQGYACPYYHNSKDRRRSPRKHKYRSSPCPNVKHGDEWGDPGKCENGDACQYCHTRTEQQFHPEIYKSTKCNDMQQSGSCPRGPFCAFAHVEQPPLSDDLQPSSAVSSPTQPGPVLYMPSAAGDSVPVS

| Binder | binding signal [enrichment R] |
| --- | --- |
| B1 | 8.41 |
| B2 | 0.529 |
| B3 | 0.744 |
| B4 | 10.7 |
| B5 | 0.605 |
| B6 | 35.6 |
